This passage reports displacement results from PubChem BioAssay AID1240 (Sanford-Burnham Center for Chemical Genomics, 2008).

Among all 50,000 compounds or so, about 800 (1.6%) showed an effect of 50% or more. The list shows a part of the results.

The assay deals with Bcl-2-like protein 10 (Homo sapiens) (UniProt Q9HD36). Description: TR3 peptide-Bcl-B binding displacers, biochemical primary FP assay, phenotype converters (AID 1240).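 Further: 0% = Bcl-B with tracer peptide and DMSO and 100% = tracer peptide lacking Bcl-B.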 Conditions: GST-Bcl-B / FITC-TR3 peptide fluorescence polarization; stronger effect = higher value; compound at 3.75 mg/L. Background: Polarisation of emitted light reports the rotation of a fluorescent probe.
Chain of UniProt Q9HD36 (Q9HD36 whole entry, looked up): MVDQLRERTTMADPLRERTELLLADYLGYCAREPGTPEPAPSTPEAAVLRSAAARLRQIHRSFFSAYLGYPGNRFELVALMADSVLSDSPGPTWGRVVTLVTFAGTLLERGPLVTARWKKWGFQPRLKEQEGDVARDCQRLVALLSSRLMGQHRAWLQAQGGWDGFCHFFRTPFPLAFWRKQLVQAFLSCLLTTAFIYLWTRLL
On to `CCCOc1ccc(C=Nc2ccc(Nc3ccccc3)cc2)cc1OC`, for which the displacement amounted to 31%. Then `CCN(CC)CCN1C(=O)C2C3c4ccccc4C(c4ccccc43)C2C1=O` (configuration not stated), with 6.4%; and `Cc1cc2c(cc1C)NC(c1ccc(OC(F)(F)F)cc1)C1=C(CC(C)(C)CC1=O)N2` (configuration not stated), with -1.2%; and `CCOc1ccccc1/C=C1/SC(=S)N(CC(=O)OC)C1=O`, with 0%.

As to `O=C1/C(=C\c2ccc(-c3ccc([N+](=O)[O-])cc3Br)o2)SC(=S)N1Cc1ccccc1`, the displacement was found to be 4%. With `O=C(O)c1cc2nc(-c3cccs3)cc(C(F)(F)F)n2n1`, the displacement was -14.6%. Take `CC(=O)c1cccc(N2C(=O)C3C4C=CC(C4)C3C2=O)c1` (configuration not stated): the displacement turned out to be 28.9%. On to `O=C(/C=C/c1ccc(F)cc1)N1CCN(Cc2ccccc2)CC1`, for which the displacement is -11.9%. For `COCCOC(=O)C1=C(C)NC(=O)CC1c1ccccc1OC(C)C` (configuration not stated), the displacement was -9.8%. As to `O=C(O)C1C2CCC(C2)C1C(=O)Nc1nc2c(s1)CCCC2` (configuration not stated), the displacement was -7.2%. For `C=C(C)c1cccc(C(C)(C)NC(=O)N(C)C2CCN(C)CC2)c1`, the displacement was -6.7%. Take `Cc1c(C(=O)N2CCN(C)CC2)cccc1[N+](=O)[O-]`: the displacement was 17.3%. On to `CCCCOc1ccc2c(C)c(CC)c(=O)oc2c1`, for which the displacement is -1.3%. As to `O=C(CN1C(=O)c2ccccc2C1=O)Nc1ccc(C(=O)Nc2cccc(O)c2)cc1`, the displacement came out at 4.9%. Then `COc1ccc(C(=O)N2CCN(Cc3ccc4c(c3)OCO4)CC2)cc1OC`, with 10.6%; and `Cc1cc(C)nc(SCN2C(=O)c3ccccc3C2=O)n1`, with -13.4%; and `Cc1cccc(C)c1OCC(O)CNC(C)(C)C` (configuration not stated), with 14%. `CC(C)CC(=O)NS(=O)(=O)c1ccc(NC(=O)c2ccccc2)cc1`: the displacement was determined as 15.7%.

As for `Cc1cccc(N2C(=O)/C(=C3/C(=O)N(C)c4ccccc43)SC2=S)c1C`, the displacement is -10.3%. On to `BrC(/C=N\N1CCN(c2ccccc2)CC1)=C\c1ccccc1`, for which the displacement was -16.7%. The result for `Cc1cc([N+](=O)[O-])ccc1-c1ccc(C(=O)Nc2ccc(Cl)cn2)o1` reads 50.1%. Turning to `CC(C)Oc1cccc(C(=O)Nc2ccc(Cl)cn2)c1`, the displacement was found to be 11.6%. Consider `COc1ccc(OC)c(/C=N/N2CCN(Cc3ccc(Cl)cc3)CC2)c1`, for which the displacement is -17.9%. Take `O=C(O)CCSc1nc2ccc(N3C(=O)c4ccccc4C3=O)cc2s1`: the displacement was -1.3%. As to `O=S(=O)(Cc1ccccc1)CC(O)COc1ccccc1` (configuration not stated), the displacement is -5.8%.

Consider `CCOC(=O)Cc1nnc(NC(=O)c2cccs2)s1`, for which the displacement was -2.9%. Regarding `COc1ccc(N2C(=O)c3ccccc3NC2c2ccc(C)cc2)cc1` (configuration not stated), the displacement came out at 1.9%.

As for `Cc1ccc(-n2cc(C=C3C(=O)NC(=O)NC3=O)cn2)cc1C`, the displacement is 110%. As to `CCc1c(O)nc(SCC(=O)c2ccccc2)[nH]c1=O`, the displacement is 24.1%. For `CCOc1ccccc1N1CCN(C(=O)c2cc(OC)c(OC)c(OC)c2)CC1`, the displacement was determined as 2.1%. In the case of `O=C1c2cccc3c([N+](=O)[O-])ccc(c23)C(=O)N1c1ccc(O)cc1`, the displacement is 20.7%. For `CSc1ccc(S(=O)(=O)N(CC(=O)N2CCCC2)c2ccc(C)cc2)cc1`, the displacement was 4.9%. Take `CCSc1nnc2c(n1)[nH]c1c(C)cccc12`: the displacement was found to be 0.1%.

Consider `COc1ccc(N=Cc2cccc(C)c2O)cc1Cl`, for which the displacement is -2.5%.

In the case of `O=C(c1cn(-c2ccccc2)nc1-c1ccccc1)N1CCCCC1`, the displacement was determined as 14.4%.

Consider `CC(Oc1cccc(Cl)c1)C(=O)NCc1ccco1` (configuration not stated), for which the displacement is 8.2%. Turning to `CCc1c(C)sc(NC(=O)c2cccnc2)c1C(N)=O`, the displacement worked out at 3.4%.

For the compound `Cc1ccc(S(=O)(=O)NC(=O)NC(C)(C)C)cc1`, the displacement turned out to be 7.1%. On to `NC(=O)c1ccccc1NC(=O)COc1cccc2ccccc12`, for which the displacement was -10.2%. For the compound `COCC(O)CSCc1ccc(Cl)cc1` (configuration not stated), the displacement is 2.1%. The result for `O=C(c1cc2nc(-c3ccccc3)cc(-c3ccccc3)n2n1)N1CCCC1` reads 26.9%.

Consider `N/C(=N\OC(=O)Cc1ccccc1)c1ccccc1`, for which the displacement was -7.1%. With `Cc1cc(/C=N/NC(N)=S)c(C)n1-c1ccc(N(C)C)cc1`, the displacement is -5.2%.

Regarding `COc1ccc(NC(=O)CN(c2ccc(C)cc2)S(=O)(=O)c2ccc(SC)cc2)cc1OC`, the displacement was -2.5%. Consider `CN1CCN(C(=O)c2ccccc2NC(=O)CCN2C(=O)c3ccccc3C2=O)CC1`, for which the displacement is -5.9%. On to `O=C(c1cccc(F)c1)N1CCN(C(=O)c2cccc(Cl)c2)CC1`, for which the displacement was -18.6%. As to `CCC(=O)/C(C)=C(\NC(=O)c1ccccc1)c1ccccc1`, the displacement was -4.8%. The result for `CCCCOc1ccc(/C=N\Nc2cc(-n3nc(C)cc3C)nc(C)n2)cc1` reads -13.9%; that for `COc1ccccc1/C=C1\SC(=S)N(CC(=O)NNc2ccccc2)C1=O`, -0.9%; that for `CCc1ccc(CN2CCN(C(=O)c3ccc(OC)cc3)CC2)cc1`, 13.3%. Consider `Cc1ccc(-c2nn(CCC#N)cc2C=O)o1`, for which the displacement was -2.4%. The result for `O=C(O)CCCCCN1C(=O)C(=O)/C(=C(/O)c2ccc(Cl)cc2)C1c1ccccc1F` (configuration not stated) reads 5.8%; that for `COc1cc(N/N=C/c2ccccc2O)ncn1`, -3.2%; that for `Cc1c(Cc2ccccc2)c(=O)oc2cc(OCC(=O)C(C)(C)C)ccc12`, -6.3%. `Cc1ccc(N(CC(=O)NC2CCCCC2)S(=O)(=O)c2ccc(F)cc2)cc1`: the displacement was found to be 3.3%. As for `CC(=O)NC(NC(=S)N1CCCCCC1)C(Cl)(Cl)Cl` (configuration not stated), the displacement amounted to 0.7%. Consider `Cc1ccc(S(=O)(=O)N(CC(=O)Nc2ccccc2C)Cc2ccccc2)cc1`, for which the displacement turned out to be 7.2%. The result for `CCCC(=O)Nc1cc2nn(-c3ccc(C)cc3)nc2cc1C` reads -9.9%. For `COc1ccc(NC(=O)c2c(N)sc3c2CCCC3)cc1`, the displacement is 11.1%. Then `CSc1ccc(S(=O)(=O)N(CC(=O)Nc2cccc(C)c2)c2ccc(C)cc2)cc1`, with 10.1%. The result for `O=C1NN(c2ccccc2)C(=O)C2C3C=CC(C4CC34)C12` (configuration not stated) reads -2.2%; that for `CCOc1ccc(N2C(=O)/C(=C/c3cccc4ccccc34)SC2=S)cc1`, 2.6%. The result for `COC(=O)c1c(C)oc2ccc(OCc3cc(C)ccc3C)cc12` reads 13.4%.

In the case of `O=C1N=C(N2CCOCC2)S/C1=C/c1ccc(Cl)cc1`, the displacement was -0.1%.

As for `Cc1ccc(NC(=O)c2cc(C(=O)Nc3ccc(C)c(C)c3)n(C)n2)cc1C`, the displacement was 11.3%. Then `COc1ccc(N2C(=O)C=CC2=O)c([N+](=O)[O-])c1`, with 11.9%; and `O=C(N1CCN(Cc2ccccc2)CC1)C(Cl)(Cl)Cl`, with 15.8%. Then `CCOC(=O)C(CCCOc1ccccc1)C(=O)OCC`, with 15.3%. As for `O=C(Cc1ccc([N+](=O)[O-])cc1)Nc1ccc(F)cc1F`, the displacement is -8.7%. For `CN(C)c1ccc(/C=c2\sc3nc4ccccc4n3c2=O)cc1`, the displacement was determined as 107%. The result for `S=C1NC(c2ccccc2)N2C(=S)NC(c3ccccc3)N12` (configuration not stated) reads -5.1%; that for `CC(C)CNC(=O)CN(c1cccc(Cl)c1)S(C)(=O)=O`, 2.9%.
